# Out of some 150,000 compounds screened, about 540 (0.36%) showed an effect of 50% or more. The list shows a part of the results.
# System: Plasmodium falciparum
# Assay: Primary screen in NF54 nanoGlo assay, in single point, at 2uM, 72h; a lower Z score goes with more inhibition
# Type: functional, Erythrocyte
# Conditions: timepoint 72 hour
Structure (SMILES),% Inhibition,Z score
CN(C)Cc1ccc(C(=O)NCC(=O)N2CCN(c3ccccc3)CC2)cn1,12%,-1.52
CC(C)C[C@H]1CCN(Cc2cscn2)C1,-1%,0.09
Cc1cc(=O)[nH]c(N2CCC[C@H](NC(=O)OCC3CC3)C2)n1,-5%,1.08
CNC(=O)c1ccc(Cl)c(-n2ccnc2-c2cnc(-c3ccco3)nc2)c1,1%,-0.2
COc1cccc(CN2CCC3(CC[C@@H]3N3CCOCC3)CC2)c1,-2%,0.29
COCC1(CNC(=O)c2cc(C(N)=O)co2)CCCCC1,-9%,1.4
Cc1c(Nc2ncnc3c2cnn3C)c(=O)n(-c2ccccc2)n1C,-11%,1.28
CN1CCN(C(=O)c2cccn2C)C[C@H]1C(C)(C)C,-4%,0.68
Nc1nc2ccccc2n1CCCn1ccnc1,-11%,0.97
O=c1nc(CN2C[C@@H](c3cccc(C(F)(F)F)c3)OCC23CCCC3)[nH][nH]1,-17%,1.9
CS(=O)(=O)CC1(CC(=O)Nc2c(F)cccc2NC2CC2)CC1,-3%,0.41
COCCCN(Cc1csc(COc2ccccc2C)n1)C(=O)C1CCCC1,-3%,0.55
CC(=O)N[C@H]1[C@H](Oc2ccccc2)O[C@@H]2COC(c3ccccc3)O[C@H]2[C@@H]1OCC(=O)O (stereo partly specified),-13%,2.53
C[C@](O)(CNC(=O)C(=O)Nc1cccc(C(F)(F)F)c1)c1ccc2c(c1)OCO2,-10%,1.77
CN(CCO)C[C@@H]1CN(Cc2sc3ccccc3c2Cl)C[C@@H]1CO,-2%,0.32
CCC(C)(C)C(=O)Nc1nnc(COC)s1,-2%,0.41
CC1CN(C(=O)C2CCN(C(=O)Nc3cccc4ccccc34)CC2)CC(C)O1 (stereo unspecified),2%,-0.46
COC[C@@H]1CN(S(=O)(=O)c2ccc(F)cc2)C[C@H]1c1ccncc1,1%,-0.16
CC(C)(C(=O)N1CC(=O)N(CCC(F)(F)F)C1)N1CCOCC1,-14%,1.72
COc1nc(-c2ccc(F)cc2)n(-c2ccc(NC(=O)c3ccc4c(c3)OCO4)cc2)n1,-9%,0.8
Cc1cc(C(=O)N2CC[C@H](C(F)(F)F)C2)n2nc(C)cc2n1,9%,-1.09
Cc1ccccc1Cc1nnn(C[C@H](O)COCc2ccccc2)n1,-8%,0.98
Oc1nc(Nc2ccc3ccccc3c2)nc(N2CCOCC2)n1,35%,-3.91
Cc1[nH]c(CN2C[C@H]3CCC[C@@H](C2)N(C)C3)cc1C#N,-13%,2.5
O=C(O)[C@@H](c1ccc(-n2cccn2)cc1)N1CCN(c2ncccn2)CC1,-9%,0.79
CS(=O)(=O)N1N=C(c2cn(-c3ccccc3)nc2-c2ccccc2)C[C@H]1c1ccccc1,-24%,2.8
O=C(CC1CCNCC1)NCC1CCCCCCC1,-10%,1.29

Structure (SMILES),% Inhibition,Z score
COc1ccc2c(c1)N(Cc1c[nH]nc1C)C[C@H](C)O2,0%,0.03
Nc1c(C(=O)Nc2cccc(F)c2)sc(=S)n1Cc1ccccc1,1%,-0.15
O=C(COCC(=O)N1CCN(c2ccccn2)CC1)N1CCCCCC1,-37%,4.34
CCC(CC)C(=O)NCc1cn([C@@H](C)C(=O)C2CC2)nn1,-6%,0.68
O=C([C@H]1CCc2nncn2C1)N1Cc2ccccc2C2(CCCC2)C1,-15%,1.86
O=C(NCc1cccc(F)c1F)[C@H]1CCC(=O)N(C2CCCCCC2)C1,-4%,0.54
COc1ncc(CN(C)[C@H]2CCN(Cc3ccccc3)C2)cn1,-4%,0.57
O=C(NCc1nccc(C(F)F)n1)[C@@H](c1ccccc1)N1CCCCC1=O,-2%,0.22
CCc1nc(CC)n(CCC(=O)Nc2cc(C)on2)n1,-7%,0.88
O=c1[nH]c2cccc(N3CCN(Cc4ccncc4F)CC3)c2[nH]1,-5%,0.71
COC[C@@H]1CN(Cc2ccc(F)c(F)c2)C[C@H]1C(=O)NC1CC1,-1%,0.11
CCN(C)C[C@H]1CCN(C(=O)Nc2ccc3nn(C(C)C)cc3c2)C1,-10%,1
c1ccc(-n2ncc3c(N4CC[C@H](N5CCCC5)C4)ncnc32)cc1,0%,-0.02
COCCO/C(=N/C(=O)c1cccc(C(F)(F)F)c1)NC[C@H]1CCCO1,-5%,0.73
CCCC[C@H](NC(=O)C(C)(C)N)c1cccnc1,9%,-1.3
Cc1c(C(C)NCC(=O)NC(C)(C#N)C2CC2)oc2ccccc12 (stereo unspecified),-14%,1.62
Cc1cccc(N2CCN(C(=O)Cc3scnc3-c3cccs3)CC2)c1C,-1%,0.07
CCOc1cc(CNCc2cnc(C)cn2)ccc1O[C@@H](C)CC,-13%,1.76
CC(=O)N[C@H](c1nc(Cn2cnc3ccccc32)no1)C(C)(C)C,0%,0.07
C[C@@H](c1ccccc1)N(CC(N)=O)CC1CCC1,13%,-1.55
Cc1c(CN2C[C@H]3CC(=O)NCCN(C)C(=O)c4cccn(c4=O)Cc4cn(nn4)[C@H]3C2)[nH]c2ccc(Cl)cc12,-7%,1.18
CC(C)(C)CNC(=O)C(C)(C)NCc1cccs1,-8%,1.43
Cc1ccn(-c2cc3c(cc2C(N)=O)OCO3)n1,2%,-0.32
CCc1nnc(C2(c3ccccc3Cl)CCOCC2)o1,3%,-0.53
CCN1CC(CN(C)C(=O)NCC2COCCO2)Oc2ccccc21 (stereo unspecified),1%,-0.11
CCCCN(C)c1ccc2nnc(CCc3nc(-c4cccc(C)c4)no3)n2n1,-6%,0.91
